Laboratory results reported in PubChem BioAssay AID540267 (National Center for Advancing Translational Sciences (NCATS), 2011).
The campaign covered roughly 340,000 compounds. About 530 (0.16%) were called active. Inconclusive results, whose numbers are uncertain, are shown with a selection of clear calls. Rule as the data show it: active = activity change below about -80%; inconclusive = between about -30% and that limit; inactive = weaker than that.

assay: Small Molecules that selectively kill Giardia lamblia: qHTS; settings: Giardia lamblia trophozoite viability; at 7.66 µM; active compounds read low;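 also: parasites exposed to compound for two days anaerobically before the ATP read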
Method in brief: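 Giardia lamblia trophozoites (100 cells/well) were incubated with compounds for 48 h at 37 deg C under anaerobic conditions. Viability was read as ATP content by one-step luminescence after 15-30 min at room temperature.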
% is scaled to controls: 0 for no effect and ±100 for the full control effect.

SMILES	activity change
O=C1CCC[C@@H]2CC(Nc3ccc(F)cc3F)C[C@@H]3CCN1[C@H]23 (some centres undefined)	inconclusive: -44% [inhibitor]
Cc1ccc(-n2nc3c(N4CCC(C(=O)NCc5cccc(F)c5)CC4)nnc(C)c3c2C)cc1	inconclusive: -45.7% [inhibitor]
COCCCNc1nc2nonc2nc1NCCSC	inactive: -24.6%
Cc1ccc(S(=O)(=O)CC(C)N2CCOCC2)c(S(=O)(=O)CC(C)N2CCOCC2)c1 (centres undefined)	inactive: 12%
CCOC(=O)C(=Cc1cc(=O)c(OC)co1)C(=O)OCC	inactive: -24.7%
COc1cccc(C(=O)CC(C#N)c2ccc(F)cc2)c1 (centres undefined)	inactive: 26%
Cc1noc(C)c1CSc1nc2ccccc2[nH]1	inconclusive: -31% [inhibitor]
Cc1ccc2nc(Cl)c(/C=N/Nc3ccc(C(=O)O)cc3)cc2c1	inconclusive: -65.8% [inhibitor]
COc1cc(C(=O)NC(=S)Nc2ccc(Cl)cn2)cc(OC)c1OC	inconclusive: -45.6% [inhibitor]
CN1CCN(c2ccc(NC(=O)CN3CCOCC3)cc2F)CC1	inactive: 9.58%
O=C(N/N=C/c1ccc([N+](=O)[O-])o1)C(O)c1ccccc1 (centres undefined)	active: -84%
Cc1ccc(/C=N/NC(=O)CNC(=O)c2ccc(S(=O)(=O)N(C)C)cc2)cc1	inconclusive: -31.1% [inhibitor]
Cc1ccnc(NS(=O)(=O)c2ccc(NS(=O)(=O)c3ccccc3)cc2)n1	inconclusive: -32.8% [inhibitor]
CC(C)NC(=O)NC(=O)COC(=O)c1ccc(S(=O)(=O)NCc2ccco2)cc1	inconclusive: -30.1% [inhibitor]
COC(=O)c1ccccc1NC(=O)c1cc[n+]([O-])cc1	inactive: 2.56%
COc1ccc(-c2cnc3c(-c4ccc(F)cc4)cnn3c2N)cc1	inconclusive: -32.8% [inhibitor]
COc1ccc(OCc2cc(C(=O)N(C)Cc3cc(C4CC4)n[nH]3)no2)c(Cl)c1	inconclusive: -71.9% [inhibitor]
Cc1ccc(-c2nnc(Nc3ccccc3)o2)cc1	inconclusive: -69.2% [inhibitor]
COc1cc(CCN2C(=O)N[C@@H](CCc3ccccc3)C(C(C)=O)=C2C)cc(OC)c1OC	inconclusive: -36% [inhibitor]
COc1ccc(/C=N/NC(=O)c2c(-c3ccccc3)noc2C)cc1[N+](=O)[O-]	inactive: 1.28%
Nc1cnnc(N/N=C\c2ccccc2)c1Cl	inconclusive: -34.4% [inhibitor]
COc1ccc(CNC(=O)CN(Cc2ccc(OC)cc2)C(=O)CCC(=O)Nc2nccs2)cc1	inconclusive: -32.1% [inhibitor]
CC(C)N(C(=S)Nc1cc(S(=O)(=O)N2CCOCC2)ccc1Cl)c1ccccc1	inactive: 3.51%
Cc1ccc(NC(=O)c2ccc([N+](=O)[O-])o2)cc1S(=O)(=O)N1CCOCC1	active: -90.8%
COc1cccc(C(=O)NCCSc2ccc(F)cc2)c1	inactive: -5.24%
Fc1ccc(CN2CC[C@H]3C=CCc4cccc(c43)C2)cc1	inconclusive: -70.4% [inhibitor]
C=CCNC(=S)N1CCN(Cc2ccc3c(c2)OCO3)CC1	inconclusive: -36.2% [inhibitor]

SMILES	activity change
Cc1ccc(SCC(=O)Nc2ccc(N3CCOCC3)cc2)c(C)c1	inconclusive: -31.1% [inhibitor]
COc1ccc(C(=O)Nc2cc(OC)nc(OC)n2)cc1	inconclusive: -34.3% [inhibitor]
CC[C@H](C)[C@H]1CNC(=S)N1CC1CCN(CC2CCC(C)CC2)CC1 (some centres undefined)	inconclusive: -30.7% [inhibitor]
CC(=O)c1ccc(OCC(=O)OCC(=O)NCc2ccco2)cc1	inconclusive: -30.3% [inhibitor]
COc1ccc(C(C)=O)cc1Cn1nnc(-c2ccccc2Br)n1	inconclusive: -32.6% [inhibitor]
Fc1ccc(-c2n[nH]c(=S)n2/N=C/c2c[nH]c3ccccc23)cc1	inactive: 4.54%
Cc1ccc(-n2ncc(C(=O)Nc3cc(Cl)cc(Cl)c3)c2C2CCNCC2)cc1C	inconclusive: -30.7% [inhibitor]
CC1CN(C(=O)c2ccc([N+](=O)[O-])s2)CC(C)O1 (centres undefined)	inconclusive: -66% [inhibitor]
CCCCNC(=O)c1onc(CSc2cccc(OC)c2)c1C(=O)O	inconclusive: -32.9% [inhibitor]
O=C(NCc1ccccn1)C1Nc2ccc(OC(F)(F)F)cc2C2C=CCC12 (centres undefined)	inconclusive: -31.4% [inhibitor]
COc1ccc(-c2nc3ccccc3n2OCC(=O)O)cc1	inconclusive: -46.7% [inhibitor]
COc1ccc(/C(C)=N/N=C2/NC(=O)CC(C(=O)O)S2)cc1F (centres undefined)	inconclusive: -33.7% [inhibitor]
COc1ccc(CNC(=O)C2CCCN(S(=O)(=O)c3c(C)noc3/C=C/N(C)C)C2)cc1 (centres undefined)	inconclusive: -30.4% [inhibitor]
CC(=O)Nc1ccc(S(=O)(=O)NCCC(=O)Nc2ccc(C)c(F)c2)cc1	inactive: -2.46%
COc1ccc(-c2nnc(NC(=O)c3ccc([N+](=O)[O-])o3)o2)c(OC)c1	active: -99.9%
O=C(/C=C/c1ccc([N+](=O)[O-])cc1)Nc1ncc([N+](=O)[O-])s1	active: -82.4%
CC(C)(C)OC(=O)N[C@H]1C=C[C@H](OC(=O)CC(=O)OCC(F)(F)F)C1	inactive: 8.24%
N#Cc1cc(N)ccc1Sc1ccc(Cl)cc1	inconclusive: -33.4% [inhibitor]
COC(=O)c1ccccc1-c1ccc(/C=N/Nc2nc(N3CCCC3)nc(N3CCCC3)n2)o1	inactive: -18.4%
COc1ccc(C(=O)NCC(=O)N2CCN(c3ccc(F)cc3)CC2)cc1	inconclusive: -44.3% [inhibitor]
Cc1c(Cl)cccc1NC(=O)Cn1c(CCC(=O)O)ccc1-c1ccccc1	inconclusive: -31.3% [inhibitor]
Cn1nnnc1Sc1ncnc2scc(-c3cc4ccccc4o3)c12	inactive: -17.3%
O=C(CCCl)N1CCCC2(CCCCC2)C1	inactive: -16.5%
CN(Cc1cccc(Cl)c1)C(=O)C1CCC(=O)N(C2CC2)C1 (centres undefined)	inconclusive: -46.2% [inhibitor]
Cc1cccc(NC(=O)c2onc3c2CCCC3)n1	inconclusive: -56% [inhibitor]
CS(=O)(=O)N1N=C(c2cccs2)CC1c1ccc(Cl)o1 (centres undefined)	inconclusive: -39.5% [inhibitor]
COc1ccc(NC(=O)C(NC(=O)Cc2cccs2)c2ccccc2)cc1 (centres undefined)	inactive: 10.8%

SMILES	activity change
O=C(c1ccc2ccccc2n1)N1CCN(Cc2c(F)cccc2Cl)CC1	inactive: -7.5%
COc1cccc(/C=C2\SC(=S)N(C(C)C(=O)NC3C=CS(=O)(=O)C3)C2=O)c1 (centres undefined)	inconclusive: -40% [inhibitor]
Cc1cc(=O)n2[nH]c(N)c(N=Nc3ccccc3F)c2n1	inactive: -21.2%
NS(=O)(=O)c1cccc(NC(=O)COC(=O)c2ccccc2C(=O)c2ccccc2)c1	inconclusive: -35.1% [inhibitor]
Cc1ccc(NC(=O)Cn2cnc([N+](=O)[O-])c2)cc1C	inconclusive: -48% [inhibitor]
CCOC(=O)C(=CNc1cc(OC)ccc1-n1cccc1)C(=O)OCC	inactive: 29.8%
COc1ccc(CCC(=O)Nc2ccc(S(=O)(=O)Nc3nccc(C)n3)cc2)cc1	inconclusive: -38.1% [inhibitor]
O=C(NNc1ccccn1)c1ccc(Cl)nc1	inconclusive: -36.7% [inhibitor]
O=c1cc(-c2ccccc2)nc(SCCOc2ccccc2Cl)[nH]1	inconclusive: -32.5% [inhibitor]
CCN(CC)CCNC(=O)Cn1cnc2sc(C)c(S(=O)(=O)N3CC(C)CC(C)C3)c2c1=O (centres undefined)	inconclusive: -31.4% [inhibitor]
O=C(c1cc(-c2ccncc2)nc2ccc(Br)cc12)N1CCN(c2ccccn2)CC1	inactive: -9.82%
Cc1c(Cl)c([N+](=O)[O-])nn1CCCC(=O)Nc1cccc(O)c1	inconclusive: -32.2% [inhibitor]
OC(COc1ccc2ccccc2c1Cl)CN1CCOCC1 (centres undefined)	inactive: -7.17%
O=C(NC(=S)Nc1cccnc1)c1cccc(Br)c1	inactive: -25.4%
CC1CC(C)CN(CCCNC(=O)c2ccc3nc(N4CCOCC4)sc3c2)C1 (centres undefined)	inactive: -25.4%
Oc1ccc(Nc2nc(NCC3CCCO3)c3ccccc3n2)cc1 (centres undefined)	inactive: -4.26%
COc1cccc(-c2cc3nc4c(c(NCC(C)(C)CN(C)C)n3n2)CCCC4)c1	inconclusive: -78.8% [inhibitor]
COc1ccc(S(=O)(=O)NCC2CCCN(Cc3ccc(OC)cc3F)C2)cc1 (centres undefined)	inactive: 8.98%
Cc1ccc(CC(=O)NCc2ccc(Cl)cc2)cc1	inconclusive: -32% [inhibitor]
Cc1ccc(/C=C\c2nccc3c2[nH]c2ccccc23)cc1	inconclusive: -32.9% [inhibitor]
CCCOc1ccc(C(=O)Nc2ccc(S(=O)(=O)Nc3cc(C)nc(C)n3)cc2)cc1	inactive: 4.86%
O=C(Nc1ccc(S(=O)(=O)N2CCOCC2)cc1)c1ccc([N+](=O)[O-])o1	active: -83%
CC(C)C(=O)N1CCN(c2ccc(NC(=O)c3ccc([N+](=O)[O-])o3)cc2)CC1	inconclusive: -77.3% [inhibitor]
Cc1ccccc1OCCCn1c(=O)sc2ccccc21	inactive: -14.2%
CCc1ccc(Nc2nnc(SCC(=O)Nc3cccc(S(=O)(=O)NC4=NCCCCC4)c3)s2)cc1	inconclusive: -37% [inhibitor]
